# Reference: the supplement of paper PMC11417369
# This is one part of the list.
# Test system: PfHDP1 homeodomain (GST-tagged)
# Experiment: gcPBM binding intensity (ln(normalized median fluorescence intensity)); higher = stronger DNA binding
# How it was run: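 Binding intensity values are the highest Masliner-normalised natural-log median intensity among replicate spots of either probe orientation. The binding step lasted 1 h in 1× PBS with 1% milk, 0.2 mg/ml BSA, 0.5% salmon testes DNA and 0.03% Triton X-100, using GST-tagged P. falciparum DNA-binding domains expressed in E. coli on an Agilent 4 × 180k array of primer-extended double-stranded 36-bp intergenic genomic probes plus negative controls. Alexa488 anti-GST antibody and a 488 nm scan detected bound protein.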
row,Sequence,gcPBM binding intensity (ln)
1,TATATACTCATGCGCACACACAAGTGGGAAATTTGG [CACACA_site5056],7.48
2,GGAAAGACAGTTCACAGTACCCAGGAAATCTACGGA [XGTACX_site1996],6.48
3,ATATATTATAGGTACACACACATATAAGGGATTATA [CACACA_site6154],6.84
4,ATATATATATATATTGTGCACAAAAAAAAATAAGCA,10.7
5,ATATACATATATATTGCATGCAGAGAGTATTTATAA [TGCATGCA_site646],7.12
6,CTTTGTAGTATATTAACACACAACTGTTTATAATAT [CACACA_site6038],6.53
7,ATATAAGAAATAAAGAAAAATGTGTTTTTTTTTTTT [XGTACX_negctrl_site396],6.09
8,TTTTTCCTAACATATTATATACTTGAATATTTATTA [CACACA_negctrl_site156],6.18
9,AAACAAATATTTATCACAATGTCATTTTGTTAACAT [GTGCAC_negctrl_site171],6.53
10,AGAGCTGTTTTTTATGCATGTAGTTTAGAAAATACA [TGCATGCA_site257],6.15
11,TTTATCTTATTTTTATGTACTTATTTTATAAAAAAA [XGTACX_site7730],6.97
12,CGTTCATATTATTATAGTACATATTATTATAGTTTT [XGTACX_site1550],6.52
13,TTTTTTTTTTTATTTGCATGCGGTGTTCATAATATT [TGCATGCA_site199],6.5
14,TATTTGTAAATTATTTGGGTGTGTAGGGGATATTCT [XGTACX_negctrl_site204],7.13
15,TTGGTGGATAAATTTACACACAATAACTTTCGTTCA [CACACA_site6358],6.37
16,AGAAGAAAAGTAAAAAGTACATTATTCATGGCCTAT [XGTACX_site5601],5.91
17,TTATAATATAGCAATTATTAAATAGGATCAAATGAA [CACACA_negctrl_site632],6.38
18,TTCTTTATTTATCATTATAAGAAGAGTTGATTTGTT [XGTACX_negctrl_site555],6.23
19,TATAAATACTAAAAAAGTACAAAATTTCATAAAAAA [XGTACX_site2709],6.47
20,ATTTTATATAATACATGTACAAAAGTTTAAATTTAT [XGTACX_site6196],6.64
21,AACAAATTTATCCAAAGTACAAAATATCATTTCTTA [XGTACX_site4543],5.98
22,ATTATAATTATATATGCATGTAGCATTTTCTATTTT [TGCATGCA_site66],6.75

row,Sequence,gcPBM binding intensity (ln)
1,AACAACATGTAGACGCGTACCAACATCAGATCCTAT [XGTACX_site4071],6.37
2,TATGTTCCATTTTTTGGTACACATACAATAACTGCT [XGTACX_site2256],6.19
3,TTTGTATTGTGCAGATGTACATTATAATATTGGATT [XGTACX_site5033],7.83
4,ATTACATACGAGCACACGTAAAAGTATAATATAAAA [GTGCAC_negctrl_site446],6.65
5,TTATATATAATATATACACACACATGTATATATAAA [CACACA_site8603],6.58
6,AACAAATACAAAGAATAGTCATCTGAATGGTGTTAT [GTGCAC_negctrl_site685],6.38
7,TATTTCTGATTACATACACACATATACAGATATGAC [CACACA_site7490],6.88
8,TATATACCTATATACACACACATATATAAATAAATA [CACACA_site7341],6.67
9,ATAAATAAAATAAAAGCACACAAAATGTAAATAATT [CACACA_site8895],6.72
10,AAAAAAAAAAAAAGTACACACATACCTATAAATATA [CACACA_site6937],6.46
11,TTTACCTCTTCAATGGTGCAATAACTCAAAAATTTG,9.93
12,TTTTTATTTTATTAGTGTACTTTATATTTAACAATA [XGTACX_site1175],6.57
13,TTTATTTTTATAAGAGCATGCACTGTTTAAAATGGT [TGCATGCA_site628],9.8
14,TTTATATACATTTTAAATTTTAATGTAACCCATGGG [TGCATGCA_negctrl_site115],6.08
15,TATATATTTATAAATGAACACACACCCAATTTGAAT [CACACA_site9113],7.16
16,TATATATATTTATGTACACACATCAATCATATTAAC [CACACA_site5127],6.57
17,ATAAAGATTAATTCAAGTACACATCAAATACTACAA [XGTACX_site8794],6.53
18,AATATATACATTTATATACACACCTATATATATATA [CACACA_site1972],9.13
19,AAATTAATAAGTCACACACACATATATAATATATAT [CACACA_site799],6.87
20,GTTATATGTTATATATATATATATATATATATATAT [TGCATGCA_negctrl_site428],9.32
21,AGCATCATTTTACACACATGCAAATGTAAAATAGGA [TGCATGCA_site460],7.68
22,CATATACATATATGTAGTACGTGTTCTTCTATATGA [XGTACX_site8344],6.66

row,Sequence,gcPBM binding intensity (ln)
1,AAATTGAATTAGTTAACACACAACTTTTATTTCATA [CACACA_site2840],6.26
2,TACATATACAGACACACACACACACCCCCACAAAAA [CACACA_site495],8.14
3,ATTAATATGAAACGATTATAAGAAAGAAAAGAAATG [GTGCAC_negctrl_site701],6.54
4,TTTCTTTTTTTTTTTTTTTCTTTTTTTTTTTTTTTC [CACACA_negctrl_site1025],5.53
5,GGAATATTTTATGAGTGTACATTTTTTTTTTTTTTT [XGTACX_site2370],6.56
6,ATAATCCAACTTTGAGTGCGTGGTGTTTTTTTTTTC,6.38
7,ATATTCATATATACTTCACACACATTTTATCATTCA [CACACA_site8784],6.6
8,TATATATACATATACACACATACGTACATACATATA [CACACA_site3585],6.9
9,TACATACATATATATACACACATATATAATATATAT [CACACA_site388],6.89
10,AAAAAAAAAAATAAATAAATAAATAAATATATATAT [TGCATGCA_negctrl_site468],7.84
11,ATGAAAGTAAGACATGCATGGAATTTTTTTTATTAG [TGCATGCA_site348],5.95
12,TATTCCCTTCTTCCTTCTGTTTTTGATATTAAAGGG [GTGCAC_negctrl_site270],6.29
13,ATACTTTATTCGTTAGCACACAATTCAAGTTGATTC [CACACA_site1123],6.95
14,AAGATACCCCAAAATTGTACATATTAAAATAATAAA [XGTACX_site3603],7.04
15,TATAATACAACATGCACACATATATATGTGAATCTC [CACACA_site2490],9.18
16,TTTAAAAATAAAAGTACACACATAAACATATTACAC [CACACA_site1428],6.99
17,AGGTATATATACATATGTACGTATATATATATATAT [XGTACX_site5115],9.16
18,ATAAAATAAACATAAATAAACATAAATAAACAAAAA [CACACA_negctrl_site1270],6.59
19,TTTCTAATTTATATCACACACATATTTATATAGTAA [CACACA_site6813],6.52
20,GGCGTATGTGTATATACACACCCACGTATATAAATA [CACACA_site7489],7.38
21,TTATATAAATTATTTACACACAAACATTTATACTTT [CACACA_site3449],6.69
22,TTTTTTTTTTTTTGCACACACATTGAATTATTATTC [CACACA_site197],9.98

row,Sequence,gcPBM binding intensity (ln)
1,TATACCTATATACATACATGCAAATATATATTCATA [TGCATGCA_site269],6.83
2,TATATAGAGAGATATGCACACTGTATGAATGCCCCC [CACACA_site5476],9.32
3,ATAAGAAAATATAAAATGCACACTATAAATTGTATA [CACACA_site143],9.14
4,TTGTAAAACTTATAATGTACATTTTTTTTTTTTTTT [XGTACX_site5398],6.44
5,AGGGACATCTATATCACACACAAAAATTAGTCCCTT [CACACA_site7330],6.42
6,TTTTTTTTTTTTGAAGTGCATTACTTTTTTTGTATT [GTGCAC_site9811],8.58
7,TTTTTTGTGTTTGGTACACACGTTATAAAAAATAAA [CACACA_site4866],6.43
8,GAAAATAGCTAAAATACACACAATTAAAAATTATTA [CACACA_site3506],6.09
9,AGGAATATAAAGTGCACACATAATTTGGGGGCAAAA [CACACA_site258],9.6
10,ATATGTCACTTGTATACACACATATATATTTCAATC [CACACA_site3256],7.79
11,CTGAAAAAAAAGCTTGCACACGTATTTGCTTTATGT [CACACA_site8427],8.25
12,TTACTTATAAATAAATATACAAAAATGTTATATATA [XGTACX_negctrl_site223],5.76
13,TTTTTTTTGTGTTCAAGTACAAAATTTTAAAGGTCA [XGTACX_site4011],6.28
14,TATATATATATATAAGCACACAAACAAAAAAAATTA [CACACA_site9293],8.9
15,GGTTATTTCACAGAATGTACTTATTATATATAAAAT [XGTACX_site8886],6.24
16,AAGATAAATTATTATAAATCAATTGTGCCAACAATA [CACACA_negctrl_site144],6.27
17,TGGTCTTTTAAACAAAAATATAAATTTTTAAATATG [CACACA_negctrl_site392],6.25
18,AGCTTGTGGATGCAGGTGCTACATTTGTTCTATAAT [GTGCAC_site9645],6.29
19,AATTTAATATAATGCACACATAAAAAAAAAAAATTC [CACACA_site1504],10.6
20,AAGAAAATTGTCTGAAGTACAAAACATTAATAATAT [XGTACX_site4864],6.59
21,TATAAAAATATTTCTACACACATTAAAATATATATA [CACACA_site4770],6.44
22,AATGAAAGGATGCTGTGTACATATATATATATATAT [XGTACX_site7901],9.38
